The source of these data is the supplement of paper PMC11876631.

B1: gltA; a variant is named by its letters at X, in order (parent)
chain: MADTKAKLTLNGDTAVELDVLKGTLGQDVIDIRTLGSKGVFTFDPGFTSTASCESKITFIDGDEGILLHRGFPIDQLATDSNYLEVCYILLNGEKPTQEQYDEFKTTVTRHTMIHEQXTRLXHAFRRDSHPMAVMCGITGALAAFYHDSLDVNNPRHREIAAFRLLSKMPTMAAMCYKYSIGQPFVYPRNDLSYAGNFLNXMFSTPCEPYEVNPILERAMDRILILHADHEQNASTSTVRTAGSSGANPFACIAAGIASLWGPAHGGANEAALKMLEEISSVKHIPEFVRRAKDKNDSFRLMGFGHRVYKNYDPRATVMRETCHEVLKELGTKDDLLEVAMELENIALNDPYFIEKKLYPNVDFYSGIILKAMGIPSSMFTVXXAMARTVGWXAHWSEMHSDGMKIARPRQLYTGYEKRDFKSDIKR

± gives the standard deviation of the averaged measurements. Laboratory Escherichia coli strains with one amino-acid change in an essential protein, pooled on minimal glucose agar with carbenicillin or gentamicin at twice the control MIC (plus kanamycin and chloramphenicol for the plasmids), 48 h. Fold change of barcode share against drug-free plates; higher = less susceptible. Active = above 20 in both replicates (the paper's putatively resistant). '<' = one read or none on drug, '>' = one read or none on a drug-free plate. Shares are relative, so most strains fall below 1 when a few take over. Listed are strains with at least 15 reads on both drug-free plates, and hits; most hits rest on fewer reference reads. Replicate rank correlation about 0.5. Edits are read from barcodes. Some results are limits rather than exact numbers.

The variants in one data set derive from B1. The data set is described as follows: barcode share on antibiotic plates over drug-free plates; higher = less susceptible. Particulars: with Escherichia coli (laboratory strain); antibiotic: carbenicillin; 2× MIC (3.1 µg/mL). As to the method:
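A pool of E. coli strains, each edited to carry one amino-acid change in an essential protein, was grown for 48 h on minimal glucose agar with or without antibiotic; strain barcodes were sequenced; mean of two replicates.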
As for MADTKAKLTLNGDTAVELDVLKGTLGQDVIDIRTLGSKGVFTFDPGFTSTASCESKITFIDGDEGILLHRGFPIDQLATDSNYLEVCYILLNGEKPTQEQYDEFKTTVTRHTMIHEQITRLFHAFRRDSHPMAVMCGITGALAAFYHDSLDVNNPRHREIAAFRLLSKMPTMAAMCYKYSIGQPFVYPRNDLSYAGNFLNMMFSTPCEPYEVNPILERAMDRILILHADHEQNASTSTVRTAGSSGANPFACIAAGIASLWGPAHGGANEAALKMLEEISSVKHIPEFVRRAKDKNDSFRLMGFGHRVYKNYDPRATVMRETCHEVLKELGTKDDLLEVAMELENIALNDPYFIEKKLYPNVDFYSGIILKAMGIPSSMFTVIPAMARTVGWIAHWSEMHSDGMKIARPRQLYTGYEKRDFKSDIKR [IFMIPI], the “fold change of barcode share” value was 29.3 [active].
Same read-out and setting: the value for MADTKAKLTLNGDTAVELDVLKGTLGQDVIDIRTLGSKGVFTFDPGFTSTASCESKITFIDGDEGILLHRGFPIDQLATDSNYLEVCYILLNGEKPTQEQYDEFKTTVTRHTMIHEQITRLFHAFRRDSHPMAVMCGITGALAAFYHDSLDVNNPRHREIAAFRLLSKMPTMAAMCYKYSIGQPFVYPRNDLSYAGNFLNMMFSTPCEPYEVNPILERAMDRILILHADHEQNASTSTVRTAGSSGANPFACIAAGIASLWGPAHGGANEAALKMLEEISSVKHIPEFVRRAKDKNDSFRLMGFGHRVYKNYDPRATVMRETCHEVLKELGTKDDLLEVAMELENIALNDPYFIEKKLYPNVDFYSGIILKAMGIPSSMFTVPFAMARTVGWIAHWSEMHSDGMKIARPRQLYTGYEKRDFKSDIKR [IFMPFI] was 0.983 ± 0.2; that for MADTKAKLTLNGDTAVELDVLKGTLGQDVIDIRTLGSKGVFTFDPGFTSTASCESKITFIDGDEGILLHRGFPIDQLATDSNYLEVCYILLNGEKPTQEQYDEFKTTVTRHTMIHEQITRLFHAFRRDSHPMAVMCGITGALAAFYHDSLDVNNPRHREIAAFRLLSKMPTMAAMCYKYSIGQPFVYPRNDLSYAGNFLNMMFSTPCEPYEVNPILERAMDRILILHADHEQNASTSTVRTAGSSGANPFACIAAGIASLWGPAHGGANEAALKMLEEISSVKHIPEFVRRAKDKNDSFRLMGFGHRVYKNYDPRATVMRETCHEVLKELGTKDDLLEVAMELENIALNDPYFIEKKLYPNVDFYSGIILKAMGIPSSMFTVIFAMARTVGWWAHWSEMHSDGMKIARPRQLYTGYEKRDFKSDIKR [IFMIFW] was 0.801 ± 0.48.
Turning to MADTKAKLTLNGDTAVELDVLKGTLGQDVIDIRTLGSKGVFTFDPGFTSTASCESKITFIDGDEGILLHRGFPIDQLATDSNYLEVCYILLNGEKPTQEQYDEFKTTVTRHTMIHEQITRLFHAFRRDSHPMAVMCGITGALAAFYHDSLDVNNPRHREIAAFRLLSKMPTMAAMCYKYSIGQPFVYPRNDLSYAGNFLNMMFSTPCEPYEVNPILERAMDRILILHADHEQNASTSTVRTAGSSGANPFACIAAGIASLWGPAHGGANEAALKMLEEISSVKHIPEFVRRAKDKNDSFRLMGFGHRVYKNYDPRATVMRETCHEVLKELGTKDDLLEVAMELENIALNDPYFIEKKLYPNVDFYSGIILKAMGIPSSMFTVWFAMARTVGWIAHWSEMHSDGMKIARPRQLYTGYEKRDFKSDIKR [IFMWFI], the “fold change of barcode share” value was 1.81 ± 0.99.
As for MADTKAKLTLNGDTAVELDVLKGTLGQDVIDIRTLGSKGVFTFDPGFTSTASCESKITFIDGDEGILLHRGFPIDQLATDSNYLEVCYILLNGEKPTQEQYDEFKTTVTRHTMIHEQITRLFHAFRRDSHPMAVMCGITGALAAFYHDSLDVNNPRHREIAAFRLLSKMPTMAAMCYKYSIGQPFVYPRNDLSYAGNFLNMMFSTPCEPYEVNPILERAMDRILILHADHEQNASTSTVRTAGSSGANPFACIAAGIASLWGPAHGGANEAALKMLEEISSVKHIPEFVRRAKDKNDSFRLMGFGHRVYKNYDPRATVMRETCHEVLKELGTKDDLLEVAMELENIALNDPYFIEKKLYPNVDFYSGIILKAMGIPSSMFTVQFAMARTVGWIAHWSEMHSDGMKIARPRQLYTGYEKRDFKSDIKR [IFMQFI], the “fold change of barcode share” value was found to be 0.675 ± 0.084.

Staying with this data set, now noted: with Escherichia coli (laboratory strain); antibiotic: gentamicin; 2× MIC (MIC 0.45 µg/mL).
Consider MADTKAKLTLNGDTAVELDVLKGTLGQDVIDIRTLGSKGVFTFDPGFTSTASCESKITFIDGDEGILLHRGFPIDQLATDSNYLEVCYILLNGEKPTQEQYDEFKTTVTRHTMIHEQITRLFHAFRRDSHPMAVMCGITGALAAFYHDSLDVNNPRHREIAAFRLLSKMPTMAAMCYKYSIGQPFVYPRNDLSYAGNFLNMMFSTPCEPYEVNPILERAMDRILILHADHEQNASTSTVRTAGSSGANPFACIAAGIASLWGPAHGGANEAALKMLEEISSVKHIPEFVRRAKDKNDSFRLMGFGHRVYKNYDPRATVMRETCHEVLKELGTKDDLLEVAMELENIALNDPYFIEKKLYPNVDFYSGIILKAMGIPSSMFTVIFAMARTVGWWAHWSEMHSDGMKIARPRQLYTGYEKRDFKSDIKR [IFMIFW], for which the “fold change of barcode share” value is less than 0.0144.
Still for that read-out and setting: to MADTKAKLTLNGDTAVELDVLKGTLGQDVIDIRTLGSKGVFTFDPGFTSTASCESKITFIDGDEGILLHRGFPIDQLATDSNYLEVCYILLNGEKPTQEQYDEFKTTVTRHTMIHEQITRLFHAFRRDSHPMAVMCGITGALAAFYHDSLDVNNPRHREIAAFRLLSKMPTMAAMCYKYSIGQPFVYPRNDLSYAGNFLNMMFSTPCEPYEVNPILERAMDRILILHADHEQNASTSTVRTAGSSGANPFACIAAGIASLWGPAHGGANEAALKMLEEISSVKHIPEFVRRAKDKNDSFRLMGFGHRVYKNYDPRATVMRETCHEVLKELGTKDDLLEVAMELENIALNDPYFIEKKLYPNVDFYSGIILKAMGIPSSMFTVQFAMARTVGWIAHWSEMHSDGMKIARPRQLYTGYEKRDFKSDIKR [IFMQFI] belongs 0.0832 ± 0.095.
